The whole screen tested about 270,000 compounds, of which about 620 (0.23%) were called active. Inconclusive results, whose numbers are uncertain, are shown with a selection of clear calls. The call rests on the fitted dose curve; in most records, active means well fitted inhibition curve with a large enough effect in the polarisation, with a control signal flat (not every such curve was filed as active); inconclusive means small, poorly fitted or top-dose-only effect, or effect the other way, or a change in a side signal; inactive means no such curve, though single readings can be large or run the other way; the % refers to the polarisation. Potencies of inconclusive entries are doubtful fits and often do not repeat. “Side channel” marks fits to a control or component signal instead of the main read-out.
Target: Menin (Homo sapiens) (UniProt O00255)
Sequence of UniProt O00255 (O00255 whole entry, looked up): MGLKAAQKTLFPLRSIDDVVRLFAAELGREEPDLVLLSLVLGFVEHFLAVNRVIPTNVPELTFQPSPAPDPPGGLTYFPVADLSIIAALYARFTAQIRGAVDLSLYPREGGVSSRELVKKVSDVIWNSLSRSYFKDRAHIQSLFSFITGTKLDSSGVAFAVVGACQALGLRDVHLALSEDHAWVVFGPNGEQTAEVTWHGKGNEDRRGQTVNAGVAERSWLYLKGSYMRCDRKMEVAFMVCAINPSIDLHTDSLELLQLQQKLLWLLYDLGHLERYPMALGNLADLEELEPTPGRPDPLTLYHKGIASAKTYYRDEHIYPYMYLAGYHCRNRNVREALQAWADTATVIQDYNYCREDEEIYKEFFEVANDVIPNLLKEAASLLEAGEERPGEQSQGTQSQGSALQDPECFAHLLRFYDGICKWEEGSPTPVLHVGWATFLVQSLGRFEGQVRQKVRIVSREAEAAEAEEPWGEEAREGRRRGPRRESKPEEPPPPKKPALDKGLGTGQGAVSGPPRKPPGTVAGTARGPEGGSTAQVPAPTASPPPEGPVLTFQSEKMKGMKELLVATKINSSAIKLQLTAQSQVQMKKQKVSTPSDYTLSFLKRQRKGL
Assay: qHTS Assay for Inhibitors Targeting the Menin-MLL Interaction in MLL Related Leukemias: Competition With Texas Red Labeled MLL-derived Mutant Peptide; on FP activity change, negative = inhibition: % of control where 0% means no effect
Settings: fluorescence polarization; FP activity change, negative = inhibition: at 61.6 µM (top of the series)
Potency means the concentration at half of the fitted maximal effect; tags describe the fitted curve by direction and shape or compound fluorescence and quenching.

Potency, inconclusive:
O=C(CCC1N=C2c3ccccc3N=C(SCc3cccc(Cl)c3)N2C1=O)NCc1ccco1 (stereo not drawn) 12.6 µM [fluorescent, side channel, partial curve]
O=C(c1cccc(C(=O)N2CCN(Cc3ccccc3)CC2)c1)N1CCN(Cc2ccccc2)CC1 7.94 µM [inhibitor, partial curve]
CN1CCN(C(=O)CCCOc2ccc(Cl)cc2Cl)CC1 2.82 µM [inhibitor, full curve, poor fit]
O=C1/C(=C\c2ccc(O)cc2)SC(=S)N1Cc1ccccc1 17.8 µM [quencher, side channel, partial curve]
CCSc1nnc(-c2cccc(S(=O)(=O)N(CC)CC)c2)n1Cc1ccccc1 10 µM [fluorescent, side channel, partial curve]
O=C(NCCc1c[nH]c2ccccc12)c1cccc(Br)c1 28.2 µM [quencher, side channel, partial curve]
O=C(NCCN1CCN(Cc2ccccc2)CC1)C1c2ccccc2C(=O)N2CCc3ccccc3C12 (stereo not drawn) 39.8 µM [inhibitor, single point]
CN(C(=O)c1ccc(OC2CCN(CCc3ccccc3)CC2)cc1)C1CCCCC1 1.26 µM [fluorescent, side channel, full curve, poor fit]
COc1ccccc1CN(Cc1cc2cc3c(cc2[nH]c1=O)OCCO3)Cc1nnnn1Cc1ccco1 22.4 µM [quencher, side channel, single point]
COc1cccc(CC2(CO)CCCN(Cc3ccccc3-c3ccco3)C2)c1 (stereo not drawn) 10 µM [fluorescent, side channel, partial curve]
N#Cc1c(/N=C/c2cc3ccccc3s2)sc2c1CCC2 20 µM [quencher, side channel, partial curve]
CN(C)c1ccc(NC(=S)c2ccccn2)cc1 31.6 µM [quencher, side channel, single point]
O=C(Nc1ncc(Cc2cccc(Cl)c2)s1)c1ccc([N+](=O)[O-])cc1 7.08 µM [quencher, side channel, partial curve]
Cc1ccc(SCc2cc(=O)n(C)[nH]2)cc1 17.8 µM [quencher, side channel, single point]
CC(=O)Nc1cccc(C(=O)OC(C(=O)c2ccc(C)c(C)c2)c2ccccc2)c1 (stereo not drawn) 28.2 µM [quencher, side channel, single point]
COc1cc(NC(=O)c2cccc([N+](=O)[O-])c2)ccc1NC(=O)c1ccco1 31.6 µM [quencher, side channel, single point]
CC(=O)NN1C(=O)/C(=C/c2ccc(Br)o2)SC1=S 20 µM [fluorescent, side channel, single point]
Nc1c(Cl)cc(-c2[nH]c3cc(C(=O)NCCO)ccc3c(=O)c2O)cc1Cl 25.1 µM [quencher, side channel, single point]
COc1ccc(CN2CCN(Cc3ccc(OC)c(OC)c3OC)CC2)cc1 15.8 µM [inhibitor, partial curve]
COC(=O)[C@@]1(Cc2ccccc2)[C@H]2c3cc(C(=O)N4CCCC4)n(C)c3C[C@H]2CN1C(=O)c1ccccc1 12.6 µM [fluorescent, side channel, partial curve]
Cc1ccc(O)c(NC(=O)c2cc([N+](=O)[O-])ccc2Cl)c1 25.1 µM [quencher, side channel, single point]
O=C(Nc1ccccc1)Nc1ccc(NC(=O)c2ccccc2O)cc1 3.55 µM [quencher, side channel, partial curve]
O=C(COC(=O)c1cc(-c2cccs2)nc2ccccc12)NCc1ccco1 14.1 µM [quencher, side channel, partial curve]
COc1cc(OC)cc(C(=O)NC(=S)Nc2ccc3[nH]c(=O)[nH]c3c2)c1 35.5 µM [inhibitor, partial curve]
COC(=O)c1sc(NC(=O)c2cc3c(s2)CCCC3)nc1C 25.1 µM [quencher, side channel, single point]
O=C1SC(c2ccccc2)=N/C1=C/c1ccco1 39.8 µM [quencher, side channel, single point]
COc1ccc(NC(=S)NC(=O)/C=C/c2ccco2)c(OC)c1 20 µM [quencher, side channel, partial curve]
S=c1[nH]c(-c2ccc(Br)cc2)cn1CCc1ccccc1 39.8 µM [inhibitor, single point]
CCC(C)(C)NC(=O)C(c1ccc(F)cc1)N(CCOC)C(=O)CCC(=O)Nc1nccs1 (stereo not drawn) 39.8 µM [inhibitor, single point]
Cc1ccc(N(CC(=O)NC2CCCC2)C(=O)c2nsc(Cl)c2Cl)cc1 25.1 µM [fluorescent, side channel, partial curve]
COc1ccc(C(=O)NC(=S)NNC(=O)c2ccccc2O)cc1 31.6 µM [quencher, side channel, single point]
CCN(CC)c1ccc(/C=c2\sc3nnc(-c4ccccc4Cl)n3c2=O)cc1 14.1 µM [fluorescent, side channel, partial curve]
CN(C)CCN=Cc1c(O)n(Cc2ccc3c(c2)OCO3)c(=O)c2ccccc12 22.4 µM [inhibitor, partial curve]
CCCCOc1ccccc1C(=O)NNC(=S)NC(=O)c1ccccc1[N+](=O)[O-] 28.2 µM [quencher, side channel, partial curve]
Cc1cc(N2CCOCC2)nc2ccc(NC(=S)NCc3ccc4c(c3)OCO4)cc12 31.6 µM [quencher, side channel, single point]
NC(=O)CSc1nnc(-c2cc(-c3ccc(Cl)cc3)nc3ccccc23)o1 35.5 µM [quencher, side channel, partial curve]
CC1=Nc2ccc(C)cc2/C1=C/c1c(N)n2c(S(=O)(=O)C(C)C)nsc2nc1=O 12.6 µM [quencher, side channel, partial curve]
CC1=NN(c2cccc(C(=O)O)c2)C(=O)/C1=C\C=C/c1ccccc1 35.5 µM [quencher, side channel, single point]
Cc1nc(NC(=O)c2ccco2)sc1-c1csc(Nc2ccc(Cl)cc2Cl)n1 3.16 µM [quencher, side channel, full curve]
O=C(N/N=C/c1cc([N+](=O)[O-])ccc1O)C1C2CCCCC21 (stereo not drawn) 15.8 µM [quencher, side channel, partial curve]
Cn1ccnc1C1CCCCN1Cc1nc(-c2ccc(Cl)cc2)no1 (stereo not drawn) 8.91 µM [fluorescent, side channel, full curve, poor fit]
S=c1[nH]c(-c2ccccc2)cn1/N=C/c1cccc2ccccc12 20 µM [quencher, side channel, partial curve]
COc1cccc(Cn2c(=O)c(-c3ccccc3)nc3cnc(OC)nc32)c1 22.4 µM [inhibitor, single point]
O=C(Cn1cnc([N+](=O)[O-])c1)Nc1cc(Oc2ccc(Cl)cc2Cl)cc([N+](=O)[O-])c1 11.2 µM [quencher, side channel, partial curve]
O=C(NCc1ccccc1)N1CCN(c2ccc(Cl)c(Cl)c2)CC1 31.6 µM [inhibitor, single point]
COC(=O)C1=CN(Cc2ccccc2)C=C(C(=O)OC)C1c1cc(F)ccc1F 22.4 µM [fluorescent, side channel, partial curve]

FP activity change, negative = inhibition, inactive:
OCCCCNCc1ccc(OCc2ccc(Cl)cc2Cl)cc1 -19.1%
C=CCN1C(=CCO)[C@H]2C[C@H]3[C@@H]1CC[C@@]31c3ccccc3N3C=C4[C@@H]5N(/C=C/2[C@H]31)c1ccccc1[C@]51CC[C@H]2[C@H]1C[C@@H]4/C(=C/CO)N2CC=C 3.96% [at 24.8 µM]
C=CCCC/C=C(/C)C(OCc1ccc(OC)cc1)C(CC/C=C(\C)C(N)=O)OC (stereo not drawn) -16.9% [at 11.7 µM]
Cn1c(CN2CCCCC2)nc2cc([N+](=O)[O-])ccc21 -10.1%
CC(=O)C1(C)CC2(CC(C)(C)OC2=O)C(=O)O1 (stereo not drawn) 5.9%
CC(C)CCn1nnnc1C(C(C)C)N1CCC(C(N)=O)CC1 (stereo not drawn) -10.6%
Cn1c(=O)c(Nc2ccc(Cl)cc2)c2c3c(cccc31)C(=O)c1ccccc1-2 -8.34%
CCN(C(=O)C1CCCN(c2nc(-c3ccc(OC)cc3)no2)C1)c1ccc(OC)cc1 (stereo not drawn) -7.46%
CN1CCN(c2ncc3nc(-c4cccc(C#N)c4)c(=O)n(CCC#N)c3n2)CC1 3.06%
O=C(Cc1ccc(Cl)cc1)N1CCN(c2ccccc2)CC1 -10.4%
O=C(Nc1ccc(Br)cc1)c1ccc(Br)c(S(=O)(=O)Nc2cccnc2)c1 22%
COc1cc(OC)cc(C(=O)NC(=S)NNC(=O)Cc2cccs2)c1 9.27%
